Among all 130,000 compounds or so, about 550 (0.42%) were called active. The inconclusive results got no clear call from the source; some entries with a clear call stand among them for comparison. Calls follow the shape of the dose curve; as a rule, active = well fitted inhibition curve with a large enough effect; inconclusive = small, poorly fitted or top-dose-only effect, or effect the other way; inactive = flat fitted curve, though single readings scatter. Potencies of inconclusive entries are left out as doubtful fits.
Assay: qHTS Assay for Inhibitors of the ERK Signaling Pathway using a Homogeneous Screening Assay; Stimulation with EGF; also: nearly all actives have a fitted effect of over 55% in size
Details: HEK293-V1b, EGF-stimulated phospho-ERK AlphaScreen
Summary of the method: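 Readout: AlphaScreen signal for phosphorylated ERK in lysed HEK293 cells stably expressing V1b. Stimulus 25 nM EGF, 5 min, following 30 min compound exposure. Data scaled to DMSO basal and full EGF activation.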
Potency is read from the fitted curve at half-maximal effect; tags tell the direction and shape of the fitted curve.

Row | SMILES | Potency
1 | O=S(=O)(c1ccccc1)N1CCC2(CCN(c3ccccc3)CC2)CC1 | inactive
2 | Cc1cccc(CNc2cc(-c3ccc(C(=O)N(C)C)cc3)ncn2)c1 | inactive
3 | CC(C)n1c(SCC(=O)Nc2nc3c(s2)CCCC3)nc2c1c(=O)n(C)c(=O)n2C | inconclusive [inhibitor, single point]
4 | Cc1cc(/C=N\NC(=O)COc2cccc3cccnc23)c(C)n1-c1ccc(Br)cc1 | inconclusive [inhibitor, full curve, poor fit]
5 | CCCC(=O)OCCNc1cc(SCc2ccco2)c2nonc2c1[N+](=O)[O-] | inconclusive [inhibitor, single point]
6 | Cc1ccc(C(=O)C(c2ccccc2)N2Cc3ccccc3C2=N)cc1 (configuration not stated) | inconclusive [inhibitor, partial curve]
7 | O=C1Nc2ccc(I)cc2/C1=C/c1cc(Br)c(O)c(Br)c1 | inconclusive [inhibitor, single point]
8 | COc1cc(C(=O)Nc2nc(-c3ccc(F)cc3)cs2)ccc1OCC(=O)N1CCOCC1 | inconclusive [inhibitor, single point]
9 | Cc1nc2ccccc2c2oc(C(=O)NCC3COc4ccccc4O3)cc12 (configuration not stated) | inconclusive [inhibitor, single point]
10 | CN(C)CCCOC1C(C(O)CO)OC2OC(C)(C)O[C@@H]21 (some centres not stated) | inactive
11 | O=[N+]([O-])c1cccc(/C=C/C=N/Nc2nc(N3CCCCC3)nc(N3CCCCC3)n2)c1 | inconclusive [inhibitor, single point]
12 | O=C(NCCCN1CCN(c2ccccc2F)CC1)Nc1ccccc1[N+](=O)[O-] | inconclusive [inhibitor, single point]
13 | Cc1ccc(CN2CCN(/N=C/C(Br)=C\c3ccccc3)CC2)cc1 | inconclusive [inhibitor, single point]
14 | c1ccc(-c2nnc(-c3ccccc3)nn2)cc1 | inconclusive [inhibitor, partial curve]
15 | Cn1sc(=O)c2cc(S(=O)(=O)NC3CC3)ccc21 | inconclusive [inhibitor, partial curve]
16 | CC(=O)Nc1ccc(N2CCC(C)CC2)c([N+](=O)[O-])c1 | inconclusive [inhibitor, full curve, poor fit]
17 | CN(C)c1nc(NCc2ccccc2)nc(N/N=C/c2cccc(Br)c2)n1 | inconclusive [inhibitor, single point]
18 | CCCCNC(=O)C(C#N)c1nc2ccccc2nc1N1CCN(c2ccccc2F)CC1 (configuration not stated) | inconclusive [inhibitor, single point]
19 | CC1(C)CCc2nc(SCc3ccccc3)c(C#N)cc2C1 | inconclusive [activator, full curve, poor fit]
20 | N[C@H](Cn1ccc(=O)n(Cc2ccccc2C(=O)O)c1=O)C(=O)O | inactive
21 | Cc1ccc(-n2c(=O)c3c(C)c(C)sc3n(Cc3cc(=O)n4ccccc4n3)c2=O)cc1C | inconclusive [inhibitor, single point]

Row | SMILES | Potency
22 | COc1ccc(N2CCC(CNC(=S)Nc3cccc(OC)c3)C2)cc1 (configuration not stated) | inconclusive [inhibitor, partial curve]
23 | O=C(O)c1ccc(COc2ccccc2/C=C2\NC(=O)N(Cc3ccccc3F)C2=O)cc1 | inactive
24 | O=C(Nc1cccc([N+](=O)[O-])c1)Nc1cccs1 | inconclusive [inhibitor, single point]
25 | CCC12CN3CCN(CC(C3)/C1=N\NC(=O)c1ccc(Cl)cc1)C2 | inconclusive [inhibitor, full curve]
26 | OC(CNCCc1ccc(C(F)(F)F)cc1)COc1cccc2ccccc12 (configuration not stated) | inconclusive [inhibitor, single point]
27 | CCN(CC)c1ccc(/C=C(\C#N)C(=O)c2ccc(Br)cc2)cc1 | inconclusive [activator, partial curve]
28 | Cc1ccc([N+](=O)[O-])cc1N=Cc1ccc(Br)s1 | inconclusive [inhibitor, single point]
29 | O=C1c2cccc3cccc(c23)C(=O)N1CCCCCc1n[nH]c(=S)o1 | inconclusive [inhibitor, full curve, poor fit]
30 | O=C(c1csnn1)N1CCC2(CC1)CCN(c1ccncc1)CC2 | inactive
31 | COc1ccc(NC(=S)NNc2ccc([N+](=O)[O-])cc2S(=O)(=O)Nc2ccc(C)cc2C)cc1 | inconclusive [inhibitor, single point]
32 | O=c1c(CCc2ccccc2)nc2cnc(N3CCNCC3)nc2n1Cc1ccc(F)cc1 | inconclusive [inhibitor, partial curve, poor fit]
33 | NNS(=O)(=O)c1ccc(N2CCCC2=O)c([N+](=O)[O-])c1 | inactive
34 | O=C(Nc1ccc(-c2cnco2)cc1)c1ccc(F)cc1F | inconclusive [activator, single point]
35 | COc1ccc(-c2nc(-c3cccc([N+](=O)[O-])c3O)cc(=O)o2)cc1OC | inactive
36 | Cc1cc(C=C2C(=O)c3ccccc3C2=O)c(C)n1-c1ccc(C(=O)O)cc1 | inconclusive [inhibitor, single point]
37 | Nc1nc(-c2ccccc2)c(N=Nc2ccc(Cl)cc2)s1 | inconclusive [inhibitor, partial curve]
38 | COc1ccc(Nc2c(-c3ccc(OC)cc3)nc3cnccn23)cc1 | inactive
39 | Cc1nc2cnc(N(C)C)nc2n(Cc2ccc(F)cc2)c1=O | inconclusive [inhibitor, partial curve, poor fit]
40 | Cc1cc(F)ccc1S(=O)(=O)Nc1ccccc1C(=O)Nc1ccccc1-c1nc2ccccc2[nH]1 | inconclusive [inhibitor, single point]
41 | CCOC(=O)c1sc(-c2ccc(OC)cc2)cc1NC(C)=O | inactive
42 | CN1/C(=C\C=N\NC(=O)c2ccccc2Br)C(C)(C)c2ccccc21 | inconclusive [inhibitor, single point]
